Over roughly 33,000 sequences, “E-score (-0.5 to 0.5)” has its median near -0.054; the highest 2% begin near 0.39. This is one part of the list.

The test deals with Ylr278c (UniProt Q05854). Kind of test: PBM E-score (8-mer binding enrichment) (E-score (-0.5 to 0.5)); higher = stronger / more preferred TF binding; most listed sequences are background and not binding sites. As to conditions: protein concentration: 200 nM; construct: GST-DNA-binding domain. The procedure: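 Universal 'all 10-mer' protein binding microarrays (Agilent AMADID 015681) probed with GST-tagged S. cerevisiae TFs (full-length or DBD) made by in vitro transcription/translation (PURExpress), about 100-200 nM. Bound TF was detected with fluorescent anti-GST. Each ungapped 8-mer (which stands for itself and its reverse complement) is scored by the PBM enrichment score (E-score), a modified Wilcoxon-Mann-Whitney statistic from -0.5 to +0.5, computed with the Universal PBM Analysis Suite. Scale: above 0.35 generally sequence-specific binding.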
In the case of CGTTGGGC, the “PBM E-score” value is -0.0878.
Take GAACTCTA: the “PBM E-score” value is -0.0765.
For the sequence AGGCTGAT, the “PBM E-score” value was -0.308.
With CCAAAAAA, the “PBM E-score” value was 0.0139.
On to GCTCCCCC, for which the “PBM E-score” value is -0.133.
On to CATACGTA, for which the “PBM E-score” value was -0.0591.
As for GTGATCTA, the “PBM E-score” value is -0.0775.
In the case of ACCACATA it was -0.169; in that of ACGCATCG, 0.0518.
Turning to GAACGTAC, the “PBM E-score” value was -0.143.
ATAACTCA: the “PBM E-score” value was -0.148.
With CTCTTTAA, the “PBM E-score” value was -0.217.
Take ACTCTTGA: the “PBM E-score” value is -0.211.
In the case of GGGCATAA it was -0.101; in that of TCAATTAA, -0.107; in that of AGGGTAAG, 0.0302.
Take TAAACGCA: the “PBM E-score” value was -0.0432.
Take AGATGAAT: the “PBM E-score” value is -0.194.
Turning to TCCCACGA, the “PBM E-score” value is -0.00907.
In the case of CCGGACTA, the “PBM E-score” value is 0.458.
Consider GCTAGGTA, for which the “PBM E-score” value is -0.213.
With AAAAACGT, the “PBM E-score” value is -0.107.
For the sequence AGGCTTAC, the “PBM E-score” value is -0.078.
Next, CGGCATAC: 0.261; CACACGAC: -0.0745; AAGTTGTG: -0.0813.
With ATTACACG, the “PBM E-score” value worked out at 0.00458.
Next, AACAAATA: 0.0539; CACTACTG: -0.212.
Regarding GAAGGCCA, the “PBM E-score” value was -0.0521.
In the case of AATAACAA, the “PBM E-score” value was -0.0732.
In the case of CCAAGCCA it was -0.206.
AAGAAAAG: the “PBM E-score” value was -0.0374.
Next, TCGTACAA: -0.267.
As for GGGGCGTA, the “PBM E-score” value stood at 0.0266.
In the case of CACTACCG it was 0.00134.
Take CCGGCTGA: the “PBM E-score” value worked out at 0.283.
Next, ACTTTGTC: -0.0588.
For the sequence CCAGCTCA, the “PBM E-score” value is -0.186.
In the case of CCCAGATA it was -0.14; in that of ATTGACCG, 0.212.
For the sequence ATCTTATA, the “PBM E-score” value was -0.157.
For ACCATTCA, the “PBM E-score” value was -0.181.
Turning to CAACGCGG, the “PBM E-score” value was found to be 0.246.
Next, ACAGCCGC: -0.0158; TCGACACA: -0.1.
Consider ATAGAGTA, for which the “PBM E-score” value is -0.193.
On to GGTGCGAA, for which the “PBM E-score” value is 0.0287.
Take ACAAGCCG: the “PBM E-score” value was determined as 0.0883.
In the case of GAACACGA it was -0.03.
Take GGTTCAAC: the “PBM E-score” value was -0.0464.
For the sequence AAGATAGT, the “PBM E-score” value was 0.0193.
On to AAGGGCCA, for which the “PBM E-score” value is -0.284.
Next, CGCGCAAA: 0.195.
In the case of TCCACTAA it was -0.0203; in that of ACTCCTAA, -0.0203; in that of ACTGCGTA, -0.107.
Next, ATAACATA: 0.032.
CGCCCGAG: the “PBM E-score” value amounted to 0.237.
For the sequence CTGGGTAA, the “PBM E-score” value is -0.124.
AGCTTTCA: the “PBM E-score” value is -0.146.
As to ACCCCGAT, the “PBM E-score” value was 0.426.
Regarding AATGGCCA, the “PBM E-score” value came out at 0.0167.
AGCGTCGA: the “PBM E-score” value is -0.103.
In the case of CAAACAGC it was -0.0421; in that of GGTTGGAC, 0.00889; in that of CGACGGTC, 0.0469.
Regarding AAGTGCTA, the “PBM E-score” value was -0.258.
In the case of TGGCTACA, the “PBM E-score” value is -0.123.
In the case of CAAACAAA it was -0.172; in that of AAGGGAGA, -0.178.
For the sequence CACCTTGC, the “PBM E-score” value was -0.097.
For the sequence GCTGCATA, the “PBM E-score” value was -0.13.
In the case of GATCATGA, the “PBM E-score” value was -0.00747.
Next, CTCATCAC: -0.19; AATGTGCT: -0.0471; TCCGGTCA: 0.378.
As to ACGCTTTC, the “PBM E-score” value is -0.0857.
On to CTGGCATC, for which the “PBM E-score” value is -0.314.
For the sequence AGGGCCTA, the “PBM E-score” value is -0.0551.
In the case of AATCCGCA it was 0.316; in that of AAGGTATC, -0.038; in that of CTATGGTC, -0.186.
In the case of CTGGCGTA, the “PBM E-score” value is -0.244.
Next, CTGCCCCA: -0.101; ATCGGGTG: 0.174.

The values above are taken from the supplement of paper PMC3334620.
